In publication PMC10487795 one finds binding data, which are given here for 5 substances.

Amino acid sequences for entries named in this document (tags omitted).
UniProt P0C746: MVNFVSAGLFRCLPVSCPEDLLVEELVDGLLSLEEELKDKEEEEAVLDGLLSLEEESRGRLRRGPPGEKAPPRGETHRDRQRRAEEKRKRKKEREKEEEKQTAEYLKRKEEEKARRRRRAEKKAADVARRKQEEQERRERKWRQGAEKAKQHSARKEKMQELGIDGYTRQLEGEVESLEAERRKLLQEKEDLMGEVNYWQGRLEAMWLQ

No constants are given. Whether binding was seen depends on the method and setting. Binding seen in cells or lysates may run through a third protein. Some binding calls cover weakened binding; strength is not graded here.

Assay [1] deals with Tax (transactivator from the X region), expressed in HTLV-1-infected T-cell lines (HTLV-1 (expressed in PBL-HTLV-1, SLB-1)) (UniProt P03409). The experiment in a line: co-IP; lysates of HTLV-1-infected T-cell lines (PBL-HTLV-1, SLB-1, ATL-ED, TL-Om1) in NP-40 lysis buffer (150 mM NaCl, 1% NP-40, 50 mM Tris-Cl pH 8.0); IP overnight at 4 °C with HBZ antisera, Tax antibody or control rabbit IgG, Dynabeads Protein G; immunoblot. (A western blot detects proteins with antibodies after separation by electrophoresis.)

In assay [2] the target is HBZ (HTLV-1 basic leucine zipper factor), expressed in HTLV-1-infected T-cell lines (HTLV-1 (expressed in PBL-HTLV-1, SLB-1, ATL-ED, TL-Om1)) (UniProt P0C746). Described as above.
For assay [3], the target named is S-tagged HBZ (HTLV-1 basic leucine zipper factor) (HTLV-1) (UniProt P0C746). Put plainly: pull-down; HEK293T transfected with S-tagged HBZ or HBZ deletion mutants; NP-40 lysates rocked with S beads overnight at 4 °C, washed twice; immunoblot for YBX1 and S-tag.
Assay [4] shares this target. The experiment in a line: pull-down; affinity capture pull-down of HBZ with YBX1 deletion mutants (pCMV3 YBX1 constructs) in transfected cells; S beads, NP-40 lysis buffer.

Take “HBZ (HTLV-1 basic leucine zipper factor), expressed in HTLV-1-infected T-cell lines (from UniProt P0C746 1-209)”: in assay [1], the binding result is “binds weakly”.

Take “Y-box binding protein (YBX1) (from UniProt P67809 1-324)”: the binding entry in assay [1], in assay [2] and in assay [3] was “binds” in each case.

In the case of “YBX1 ∆A/P (∆1–55) (from UniProt P67809 56-324) (domain or fragment)”, the binding result in assay [4] is reported as “binds”.

Regarding “YBX1 ∆CSD (∆56–128) (from UniProt P67809 1-324)”, in assay [4], the binding entry was “binds”.

Take “YBX1 ∆CTD (∆129–324) (from UniProt P67809 1-128) (domain or fragment)”: the binding entry in assay [4] is on record as “no binding”.
